Inconclusive results, whose numbers are uncertain, are shown with a selection of clear calls. For some assays here: Potencies beside an inconclusive call are fits to weak or partial responses and may not hold up. For some assays here: “Side channel” marks fits to a control or component signal instead of the main read-out. Activity calls are given as the source filed them. Unless noted, calls come from the whole dose curve; as a rule, active = well fitted curve in the direction sought with a large enough effect; inconclusive = small, poorly fitted or top-dose-only effect, or another doubt; inactive = no such curve, though single readings can be large; an effect the other way counts as inactive or inconclusive.
Assays:
[1] = Cell Viability - H-4-II-E (AID 543);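 note: cells exposed to compound for 40 hours; % is set by controls: 0 for no effect and ±100 for the full control effect; nearly all actives have a fitted effect of over 35% in size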
Summary of the method: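 Cells seeded at 1500 per well and rested 5 hr; compounds added; 40 hr incubation at 37 °C; CellTiter-Glo added, 20 min at room temperature; luminescence read. Hill-equation fits gave AC50.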

[2] = MultiTox-Fluor Cytotoxicity Assay - LYMP1-002 - Dead Cells (AID 960); settings: LYMP1-002 lymphoblastoid cells, dead-cell protease fluorescence; cytotoxicity (dead cells): at 46.1 µM (top of the series);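 note: 0% = DMSO and 100% = tetraoctylammonium bromide; nearly all actives have a fitted effect of over 60% in size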
Summary of the method: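 Cells were plated, rested 5 hr, then treated with compound dilution series for 16 hr at 37 C. After adding substrate reagent and 60 min at room temperature, dead-cell protease fluorescence gave concentration-response curves fitted by the Hill equation.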

[3] = Cell Viability - LYMP2-004 (AID 966); settings: LYMP2-004 lymphoblastoid cell viability, qHTS; activity change, negative = cytotoxicity: at 92.2 µM (top of the series);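 note: cells exposed to compound for 24 h; nearly all actives have a fitted effect of over 65% in size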; note: potency is the fitted concentration of half-maximal effect;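 for activity change, negative = cytotoxicity: plate controls were DMSO only for no effect and tetraoctylammonium bromide control for full effect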
Summary of the method: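 qHTS cytotoxicity: human lymphoblastoid line, 24 hr compound treatment, 37 C, complete medium. Viability read as cellular ATP via luciferase luminescence; tetraoctylammonium bromide served as positive control.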

[4] = Cell Viability - LYMP2-017 (AID 972); settings: LYMP2-017 lymphoblastoid cell viability; activity change, negative = cytotoxicity: at 92.2 µM (top of the series);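 note: cells exposed to compound for 24 hours at 37 °C; % is set by controls: 0 for no effect and ±100 for the full control effect; nearly all actives have a fitted effect of over 55% in size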
Summary of the method: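 Cytotoxicity is scored as a concentration-dependent drop in cellular ATP in a human lymphoblastoid line after 24 hr treatment at 37 C. Values are AC50s from Hill-equation modelling.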

[5] = Cell Viability - LYMP2-020 (AID 986); settings: activity change, negative = viability loss: at 92.2 µM (top of the series);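 note: cells exposed to compound for 24 h at 37 °C; plate controls were DMSO only for no effect and tetraoctylammonium bromide at 92 µM for full effect; nearly all actives have a fitted effect of over 55% in size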
Summary of the method: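 Seed 2500 cells per well and incubate 5 hr at 37 C. Add compounds at a concentration series and incubate 24 hr at 37 C. Add CellTiter-Glo, wait 30 min at RT, read luminescence, and fit a Hill curve for AC50.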

[6] = target: Glucocorticoid receptor (Homo sapiens) (UniProt P04150); test: qHTS assay for small molecule agonists of glucocorticoid receptor signaling (AID 588532; active = well fitted curve in the direction sought with a large enough effect in the signal ratio, with a control signal flat; inconclusive = small, poorly fitted or top-dose-only effect, or a change in a side signal; inactive = no such curve, though single readings can be large or run the other way; the % refers to the signal ratio; note: potency is the fitted concentration of half-maximal effect); settings: HeLa MMTV-bla, beta-lactamase ratio, agonist, 18 h; activation: stronger effect = higher value, percent of dexamethasone control, DMSO zero
Summary of the method: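 Stimulation of a glucocorticoid response element-driven beta-lactamase gene was measured in HeLa cells. Responses were scaled between DMSO basal and 0.1 uM dexamethasone, then fitted for half-maximal stimulation.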

[7] = target: Peroxisome proliferator-activated receptor gamma (Homo sapiens) (UniProt P37231); test: qHTS assay for small molecule antagonists of peroxisome proliferator-activated receptor gamma signaling (AID 588537; active = well fitted inhibition curve with a large enough effect in the signal ratio, with a control signal flat, not every such curve was filed as active; inconclusive = small, poorly fitted or top-dose-only effect, or effect the other way, or a change in a side signal; the % refers to the signal ratio;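 note: reporter cells co-stimulated with 50 nM rosiglitazone agonist during compound treatment; % of control where 0% means no effect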); settings: HEK293 PPARg-UAS-bla, beta-lactamase ratio, antagonist mode; activity, negative = inhibition: at 76.8 µM (top of the series) unless noted
Summary of the method: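 Compounds are tested as concentration series for inhibition of rosiglitazone-driven (50 nM) reporter expression in GeneBLAzer PPAR-gamma-UAS-bla HEK293 cells. After 16 h at 37 C, CCF4 substrate is added for 2 h at room temperature and blue/green fluorescence is measured.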

[8] = target: Thyroid hormone receptor beta (Homo sapiens) (UniProt P10828); test: qHTS assay for small molecule antagonists of thyroid hormone receptor beta signaling (AID 588547; active = well fitted inhibition curve with a large enough effect in the signal ratio, with a control signal flat, not every such curve was filed as active; inconclusive = small, poorly fitted or top-dose-only effect, or effect the other way, or a change in a side signal; the % refers to the signal ratio;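 note: cells stimulated with 0.4 nM T3 agonist during compound exposure; % is set by controls: 0 for no effect and ±100 for the full control effect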); settings: TR-UAS-bla HEK293, beta-lactamase ratio, antagonist mode, 18 h
Sequence of UniProt P10828 (P10828 whole entry, looked up): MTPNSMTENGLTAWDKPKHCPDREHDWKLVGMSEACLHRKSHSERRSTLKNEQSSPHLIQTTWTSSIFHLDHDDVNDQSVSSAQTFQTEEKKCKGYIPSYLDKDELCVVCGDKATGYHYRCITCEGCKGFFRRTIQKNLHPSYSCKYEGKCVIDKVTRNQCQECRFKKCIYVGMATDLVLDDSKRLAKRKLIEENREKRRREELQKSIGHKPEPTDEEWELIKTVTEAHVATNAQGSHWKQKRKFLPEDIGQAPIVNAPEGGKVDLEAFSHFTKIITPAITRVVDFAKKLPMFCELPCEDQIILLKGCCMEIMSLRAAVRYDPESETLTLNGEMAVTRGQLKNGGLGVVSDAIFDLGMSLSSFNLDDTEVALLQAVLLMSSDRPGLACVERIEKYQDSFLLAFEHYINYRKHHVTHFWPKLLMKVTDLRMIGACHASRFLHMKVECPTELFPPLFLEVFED
Summary of the method: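 TR-UAS-bla GripTite HEK293 cells in 2% charcoal/dextran FBS medium were preincubated 4 h at 37 C, given compound (0.59 nM to 92 uM) plus 0.4 nM T3 (final) for 18 h, then CCF4 for 2 h at RT; Hill fit gave IC50.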

[9] = qHTS assay to identify small molecules that stimulate interleukin-8 (IL-8) secretion (AID 651758; active = well fitted activation curve with a large enough effect in the signal ratio; inconclusive = small, poorly fitted or top-dose-only effect, or effect the other way, or a change in a side signal; the % refers to the signal ratio; note: 0% is about no effect); settings: HTRF ratio (665/615); activation: at 92.2 µM (top of the series)
Summary of the method: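 Quantitative HTS in THP-1 monocytic cells at 2000 cells per well, with 16 hrs compound incubation at 37 C. IL-8 in the medium was then quantified by HTRF immunoassay, read after 1-3 hrs at room temperature.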

[10] = Cell Viability - N2a (AID 540); settings: N2a mouse neuroblastoma cell viability; at 92.2 µM (top of the series);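 note: cells exposed to compound for 40 h at 37 °C; plate controls were DMSO alone for no effect and tamoxifen control for full effect; nearly all actives have a fitted effect of over 45% in size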
Summary of the method: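 Cytotoxicity was scored as loss of cellular ATP in N2a cells, a mouse neuroblastoma line. Compounds are applied in a qHTS concentration series for 40 hr at 37 °C.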

[11] = target: Estrogen receptor (Homo sapiens) (UniProt P03372); test: qHTS assay for small molecule antagonists of estrogen receptor alpha signaling (AID 588513; active = well fitted curve in the direction sought with a large enough effect in the signal ratio, with a control signal flat, not every such curve was filed as active; inconclusive = small, poorly fitted or top-dose-only effect, or effect the other way, or a change in a side signal; inactive = no such curve, though single readings can be large or run the other way; the % refers to the signal ratio; note: % is set by controls: 0 for no effect and ±100 for the full control effect); settings: ER-alpha-UAS-bla HEK293, beta-lactamase ratio, antagonist mode; activity, negative = inhibition: at 76.9 µM (top of the series) unless noted
Sequence of UniProt P03372 (P03372 whole entry, looked up): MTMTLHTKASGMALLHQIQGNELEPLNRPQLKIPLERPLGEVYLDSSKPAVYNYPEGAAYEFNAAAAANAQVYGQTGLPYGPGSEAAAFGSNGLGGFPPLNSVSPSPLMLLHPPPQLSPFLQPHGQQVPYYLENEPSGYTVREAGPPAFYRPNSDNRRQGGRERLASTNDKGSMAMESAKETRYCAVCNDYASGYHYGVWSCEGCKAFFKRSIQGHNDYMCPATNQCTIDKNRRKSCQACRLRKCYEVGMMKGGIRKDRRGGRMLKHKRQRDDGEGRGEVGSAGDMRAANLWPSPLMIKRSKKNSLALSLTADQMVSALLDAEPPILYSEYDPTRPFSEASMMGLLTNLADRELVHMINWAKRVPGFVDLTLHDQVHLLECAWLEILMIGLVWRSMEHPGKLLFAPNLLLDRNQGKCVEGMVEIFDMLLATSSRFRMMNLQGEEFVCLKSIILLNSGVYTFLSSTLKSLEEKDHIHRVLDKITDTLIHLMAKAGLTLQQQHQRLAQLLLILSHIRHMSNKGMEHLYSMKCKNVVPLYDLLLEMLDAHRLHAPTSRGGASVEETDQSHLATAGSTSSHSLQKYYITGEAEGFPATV
Summary of the method: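 Fluorescence from CCF4 substrate after 2 h at room temperature gave reporter activity; cells had been exposed to compound and 0.5nM 17-beta-estradiol for 18 h at 37 C. Hill-equation fitting yielded IC50 and maximal response.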

[12] = target: Androgen receptor (Homo sapiens) (UniProt P10275); test: qHTS assay for small molecule antagonists of androgen receptor signaling (AID 588516; active = well fitted curve in the direction sought with a large enough effect in the signal ratio, with a control signal flat, not every such curve was filed as active; inconclusive = small, poorly fitted or top-dose-only effect, or effect the other way, or a change in a side signal; inactive = no such curve, though single readings can be large or run the other way; the % refers to the signal ratio; note: % is set by controls: 0 for no effect and ±100 for the full control effect); settings: AR-UAS-bla HEK293, beta-lactamase ratio, antagonist mode, 16 h; activity change, negative = inhibition: at 76.8 µM (top of the series)
Sequence of UniProt P10275 (P10275 whole entry, looked up): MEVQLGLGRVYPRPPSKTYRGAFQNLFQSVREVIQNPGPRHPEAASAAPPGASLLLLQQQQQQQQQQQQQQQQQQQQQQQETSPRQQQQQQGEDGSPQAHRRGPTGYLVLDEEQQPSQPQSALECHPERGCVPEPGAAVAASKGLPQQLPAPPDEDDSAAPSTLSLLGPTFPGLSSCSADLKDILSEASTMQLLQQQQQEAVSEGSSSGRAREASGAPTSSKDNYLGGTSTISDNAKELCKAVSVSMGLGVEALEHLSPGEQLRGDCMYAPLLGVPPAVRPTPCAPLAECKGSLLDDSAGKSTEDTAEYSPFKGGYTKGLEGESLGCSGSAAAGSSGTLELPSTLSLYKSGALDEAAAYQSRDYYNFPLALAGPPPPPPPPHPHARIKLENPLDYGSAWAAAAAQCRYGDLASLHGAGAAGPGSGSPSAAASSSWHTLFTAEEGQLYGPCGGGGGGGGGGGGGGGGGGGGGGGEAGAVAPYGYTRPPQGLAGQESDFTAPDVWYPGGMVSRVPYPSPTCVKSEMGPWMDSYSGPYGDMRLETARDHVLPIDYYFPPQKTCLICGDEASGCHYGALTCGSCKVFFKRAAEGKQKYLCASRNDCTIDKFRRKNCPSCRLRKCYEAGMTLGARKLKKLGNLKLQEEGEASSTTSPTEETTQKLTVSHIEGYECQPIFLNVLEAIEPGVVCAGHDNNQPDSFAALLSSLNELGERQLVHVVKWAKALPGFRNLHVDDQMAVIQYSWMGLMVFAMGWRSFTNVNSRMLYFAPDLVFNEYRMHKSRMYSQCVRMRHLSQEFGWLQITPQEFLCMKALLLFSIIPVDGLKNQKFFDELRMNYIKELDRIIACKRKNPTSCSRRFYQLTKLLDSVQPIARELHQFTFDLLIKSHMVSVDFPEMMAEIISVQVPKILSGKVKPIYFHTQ
Summary of the method: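 Antagonist-mode qHTS: inhibition of R1881 (10 nM)-driven beta-lactamase expression in GripTite HEK 293 cells is measured after 16 h; values are Hill-derived IC50s normalized between R1881 and DMSO wells.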

[13] = target: Nuclear receptor ROR-gamma (Homo sapiens) (UniProt P51449); test: qHTS assay for small molecule antagonists of the retinoid-related orphan receptor gamma (ROR-gamma) signaling pathway (AID 651802);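 note: CHO cells with doxycycline-induced ROR-gamma expression; % is set by controls: 0 for no effect and ±100 for the full control effect; nearly all actives have a fitted effect of over 60% in size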
Sequence of UniProt P51449 (P51449 whole entry, looked up): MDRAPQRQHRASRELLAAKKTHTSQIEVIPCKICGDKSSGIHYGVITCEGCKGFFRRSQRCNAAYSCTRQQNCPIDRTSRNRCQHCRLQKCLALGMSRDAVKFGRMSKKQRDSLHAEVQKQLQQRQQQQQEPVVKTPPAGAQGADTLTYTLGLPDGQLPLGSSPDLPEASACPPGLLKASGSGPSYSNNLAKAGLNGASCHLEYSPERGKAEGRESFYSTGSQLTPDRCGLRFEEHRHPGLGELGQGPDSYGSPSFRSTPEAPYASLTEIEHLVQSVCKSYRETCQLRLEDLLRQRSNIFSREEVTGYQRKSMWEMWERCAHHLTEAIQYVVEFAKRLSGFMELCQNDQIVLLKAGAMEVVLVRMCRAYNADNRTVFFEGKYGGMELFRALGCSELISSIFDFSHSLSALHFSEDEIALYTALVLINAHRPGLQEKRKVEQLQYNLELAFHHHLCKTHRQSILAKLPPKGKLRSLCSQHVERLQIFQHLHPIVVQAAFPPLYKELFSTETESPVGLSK
Summary of the method: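 Steps: cells dispensed; compound or DMSO transferred by pin tool; doxycycline added to induce the ROR response element-driven luciferase; plates held 16hr at 37C; ONE-Glo added and luminescence measured.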

[14] = Cell Viability - Renal Proximal Tubule (AID 545); settings: renal proximal tubule cells viability, primary cells of rat origin; at 91.7 µM (top of the series);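 note: cells exposed to compound for 40 hours; 0% = DMSO only and -100% = 100 µM tamoxifen; nearly all actives have a fitted effect of over 40% in size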
Summary of the method: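 Luminescent ATP signal (CellTiter-Glo) served as the viability read-out after 40 hr compound exposure of freshly isolated rat proximal tubule cells at 37 °C. Concentration-dependent ATP loss was fitted with the Hill equation to give AC50.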

[15] = Cell Viability - LYMP2-012 (AID 982); settings: LYMP2-012 lymphoblastoid cell viability qHTS; activity change, negative = cytotoxicity: at 92.2 µM (top of the series);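 note: cellular ATP by luciferase luminescence where a drop means cytotoxicity; cells exposed to compound for one day before reading; 0% = DMSO only and full loss = 92 µM tetraoctylammonium bromide; nearly all actives have a fitted effect of over 55% in size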
[16] = target: Peroxisome proliferator-activated receptor delta (Homo sapiens) (UniProt Q03181); test: qHTS assay for small molecule antagonists of peroxisome proliferator-activated receptor delta signaling (AID 588535; active = well fitted inhibition curve with a large enough effect in the signal ratio, with a control signal flat, not every such curve was filed as active; inconclusive = small, poorly fitted or top-dose-only effect, or effect the other way, or a change in a side signal; inactive = no such curve, though single readings can be large or run the other way; the % refers to the signal ratio; note: potency is the fitted concentration of half-maximal effect); settings: HEK293T PPARd-UAS-bla, beta-lactamase FRET ratio, 18 h; activity change, negative = inhibition: at 76.7 µM (top of the series) unless noted
Sequence of UniProt Q03181 (Q03181 whole entry, looked up): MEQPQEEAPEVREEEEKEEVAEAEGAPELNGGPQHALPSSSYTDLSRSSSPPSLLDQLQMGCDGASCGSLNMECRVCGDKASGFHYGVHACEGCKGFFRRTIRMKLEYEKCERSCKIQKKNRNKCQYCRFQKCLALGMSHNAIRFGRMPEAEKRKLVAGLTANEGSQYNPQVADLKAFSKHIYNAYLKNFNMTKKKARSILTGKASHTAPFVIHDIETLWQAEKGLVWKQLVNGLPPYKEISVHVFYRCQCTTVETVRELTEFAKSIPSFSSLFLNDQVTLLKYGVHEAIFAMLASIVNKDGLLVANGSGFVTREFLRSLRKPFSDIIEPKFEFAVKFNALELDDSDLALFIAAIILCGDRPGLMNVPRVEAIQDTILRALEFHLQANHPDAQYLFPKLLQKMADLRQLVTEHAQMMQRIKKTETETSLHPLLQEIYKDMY
Summary of the method: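 Inhibition of PPAR-delta response element-driven beta-lactamase expression is measured in HEK293T cells exposed to a compound titration series for 18 hrs at 37 C. Half-maximal inhibition comes from Hill equation fitting.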

[17] = target: Thyroid hormone receptor beta (Homo sapiens) (UniProt P10828); test: qHTS assay for small molecule agonists of thyroid hormone receptor beta signaling (AID 588545; calls by dose curve; note: potency is the fitted concentration of half-maximal effect); settings: TR-UAS-bla GripTite HEK 293, beta-lactamase ratio, agonist mode, 18 h; activation: at 76.7 µM, percent of T3 response, DMSO as zero
Summary of the method: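 Agonist-mode beta-lactamase reporter assay, HEK 293 cells, 2% charcoal/dextran FBS; cells plated 4 hrs, compound 18 hrs at 37 C, CCF4 2 hrs RT. Normalized to 10 nM T3 (100%) and DMSO (0%); Hill fit gives EC50, efficacy.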

[18] = target: Voltage-gated inwardly rectifying potassium channel KCNH2 (Homo sapiens) (UniProt Q12809); test: qHTS Assay for Small Molecule Inhibitors of the Human hERG Channel Activity (AID 588834);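 note: top concentration of the series differs between compounds; % is set by controls: 0 for no effect and ±100 for the full control effect; lower thallium flux fluorescence means stronger hERG block; nearly all actives have a fitted effect of over 50% in size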
Sequence of UniProt Q12809 (Q12809 whole entry, looked up): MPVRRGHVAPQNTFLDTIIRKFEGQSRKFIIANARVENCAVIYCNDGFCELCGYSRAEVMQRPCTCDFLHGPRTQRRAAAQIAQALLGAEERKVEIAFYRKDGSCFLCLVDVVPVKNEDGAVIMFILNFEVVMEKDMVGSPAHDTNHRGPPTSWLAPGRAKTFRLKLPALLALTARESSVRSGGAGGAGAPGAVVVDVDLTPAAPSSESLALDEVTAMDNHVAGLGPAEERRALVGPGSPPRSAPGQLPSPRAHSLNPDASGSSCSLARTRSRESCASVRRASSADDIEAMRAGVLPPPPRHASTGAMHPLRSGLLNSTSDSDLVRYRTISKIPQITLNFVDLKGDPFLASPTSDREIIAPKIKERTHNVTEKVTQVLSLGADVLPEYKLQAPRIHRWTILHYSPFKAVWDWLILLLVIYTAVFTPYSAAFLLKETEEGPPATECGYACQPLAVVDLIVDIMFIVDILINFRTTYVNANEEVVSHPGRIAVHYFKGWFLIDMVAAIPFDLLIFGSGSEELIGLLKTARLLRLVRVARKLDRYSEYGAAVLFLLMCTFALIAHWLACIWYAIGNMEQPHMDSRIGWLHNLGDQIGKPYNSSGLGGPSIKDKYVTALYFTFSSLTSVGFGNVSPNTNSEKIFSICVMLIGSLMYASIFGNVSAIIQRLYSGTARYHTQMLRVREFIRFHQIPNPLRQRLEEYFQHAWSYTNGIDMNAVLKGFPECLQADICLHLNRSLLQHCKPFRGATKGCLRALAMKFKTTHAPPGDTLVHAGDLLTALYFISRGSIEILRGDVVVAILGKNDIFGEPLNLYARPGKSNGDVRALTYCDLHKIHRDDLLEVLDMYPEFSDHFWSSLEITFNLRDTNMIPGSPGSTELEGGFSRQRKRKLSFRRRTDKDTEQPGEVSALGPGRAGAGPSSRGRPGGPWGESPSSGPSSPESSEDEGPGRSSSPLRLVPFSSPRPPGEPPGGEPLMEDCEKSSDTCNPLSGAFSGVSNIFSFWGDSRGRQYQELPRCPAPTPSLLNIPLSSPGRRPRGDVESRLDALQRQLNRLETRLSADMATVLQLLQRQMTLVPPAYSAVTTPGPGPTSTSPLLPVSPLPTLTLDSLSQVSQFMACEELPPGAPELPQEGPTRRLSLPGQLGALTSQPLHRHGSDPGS
Summary of the method: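 Step 1: BacMam hERG transduction of U2OS, 4 hrs RT. Step 2: overnight 37 °C, plate 2000 cells/well, 4 hr. Step 3: FluxOR load, compound 10 min, stimulate, read fluorescence.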

[19] = qHTS assay for small molecule agonists of the antioxidant response element (ARE) signaling pathway (AID 651741; active = well fitted activation curve with a large enough effect in the signal ratio; inconclusive = small, poorly fitted or top-dose-only effect, or effect the other way, or a change in a side signal; the % refers to the signal ratio; note: % of control where 0% means no effect); settings: HepG2 ARE-bla reporter, beta-lactamase FRET ratio, 16 h; activation: at 96 µM (top of the series) unless noted
Summary of the method: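 Reporter: beta-lactamase under ARE, stably in HepG2. Exposure: 16 h, 37 C, compounds delivered in DMSO by pin tool after 5 h cell preincubation. Readout: FRET substrate fluorescence after 2 h at RT.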

[20] = qHTS assay for small molecule agonists of the antioxidant response element (ARE) signaling pathway measured by Nrf2-dependant transcriptional activity (AID 720636; active = well fitted curve in the direction sought with a large enough effect in the repeat runs; inconclusive = weak or mixed curves; inactive = no such curve, though single readings can be large; an effect the other way counts as inactive or inconclusive;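 note: HepG2 cells with an ARE-driven luciferase reporter; % of control where 0% means no effect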)
Summary of the method: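 First, ARE-luc HepG2 cells attached for 6 hr at 37 C in 1% dialyzed FBS medium. Next, compound or DMSO was added and incubated 16 hr. Finally, ONE-Glo reagent was added and luminescence measured after 30 min.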
Tags give direction and shape of the fitted curve or compound fluorescence and quenching.

Nc1c(Cl)cc(Cl)cc1Cl
inactive: Potency [1] | Potency [2] | Potency [4] | Potency [5] | Potency [7] | activity change % (negative = inhibition) [8] 14.8%
inconclusive: activity change, negative = cytotoxicity [3] 41.1% | Potency [6] 0.224 µM [side channel, falling, full curve, poor fit] | activation [9] 10.9%

O=C(O)CCSSCCC(=O)O
inconclusive: Potency [3] 31.6 µM [cytotoxic, single point] | activity, negative = inhibition [7] 2.54%
inactive: activity change, negative = cytotoxicity [10] 1.39% | Potency [11] | Potency [12] | Potency [9] | Potency [13]

C=C(C)c1ccccc1
inactive: Potency [1] | activity change, negative = cytotoxicity [14] -4.83% | Potency [2] | Potency [15] | Potency [18] | Potency [9] | Potency [20]
inconclusive: Potency [16] 0.0063 µM [inhibitor, full curve, poor fit] | Potency [17] 8.91 µM [side channel, falling, full curve, poor fit] | activation [19] 9.22%
